The list shows a part of the results.

This assay deals with T1, MBP-FoxP1dN (Mus musculus, UniProt P58462 326-579).
T1 sequence: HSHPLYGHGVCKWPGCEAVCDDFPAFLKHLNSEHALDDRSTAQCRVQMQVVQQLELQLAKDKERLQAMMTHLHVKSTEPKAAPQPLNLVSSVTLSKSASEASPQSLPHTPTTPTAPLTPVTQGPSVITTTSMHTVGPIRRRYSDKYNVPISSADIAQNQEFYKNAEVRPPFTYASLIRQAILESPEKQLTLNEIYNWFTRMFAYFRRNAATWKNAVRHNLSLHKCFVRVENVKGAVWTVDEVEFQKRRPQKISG
Briefly: PD-seq (MBP pull-down with sequencing); 20 mM Tris-HCl pH 7.5, 100 mM NaCl, 1.5 mM MgCl2, 0.4 uM protein, 0.1 uM dsDNA library, 30 min, room temperature, amylose pull-down; high values mean tight binding. The conditions noted are these: protein: recombinant; tags: His6-MBP; chain copies: 2; dsDNA, one strand shown. The gist of the method:
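Amylose resin was used to capture complexes formed during 30 min at room temperature in Tris pH 7.5 buffer with NaCl and MgCl2 between 0.4 µM His6-MBP-tagged mouse FoxP3 or FoxP1 fragment lacking the N-terminus, expressed in E. coli, and 0.1 µM Klenow-filled double-stranded degenerate DNA library. After three washes, the DNA was released with proteinase K, barcoded by PCR and sequenced on Illumina. Binding is pooled-replicate reads-per-million enrichment, pull-down over input.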
Turning to “GATGATTGTTCTCCCAGCTGATGAATTCACGCTTTCGAGTAAACAAATTTTCCTAATCTTTCTGTTCAAGCGCCATCTAC”, the binding signal is 0.98 RPM ratio (pull-down/input).
“GATGATTGTTCTCCCAGCTGATGAATTCAAAAAATCGAGTAAACAAATTTTCCTAATCTTTCTGTTCAAGCGCCATCTAC”: the binding signal is 0.976 RPM ratio (pull-down/input).
Then “GATGATTGTTCTCCCAGCTGATGAATTTCTCGTCTCGAGTAAACAAATTTTCCTAATCTTTCTGTTCAAGCGCCATCTAC”, with 0.786 RPM ratio (pull-down/input); and “GATGATTGTTCTCCCAGCTGATGAATTTCGGCACTCGAGTAAACAAATTTTCCTAATCTTTCTGTTCAAGCGCCATCTAC”, with 0.806 RPM ratio (pull-down/input); and “GATGATTGTTCTCCCAGCTGATGAATTTATTACTTCGAGTAAACAAATTTTCCTAATCTTTCTGTTCAAGCGCCATCTAC”, with 1.29 RPM ratio (pull-down/input).
In the case of “GATGATTGTTCTCCCAGCTGATGAATTTCAGGCCTCGAGTAAACAAATTTTCCTAATCTTTCTGTTCAAGCGCCATCTAC” it was 0.784 RPM ratio (pull-down/input); in that of “GATGATTGTTCTCCCAGCTGATGAATTAACCGCCTCGAGTAAACAAATTTTCCTAATCTTTCTGTTCAAGCGCCATCTAC”, 0.908 RPM ratio (pull-down/input); in that of “GATGATTGTTCTCCCAGCTGATGAATTGTGTGCATCGAGTAAACAAATTTTCCTAATCTTTCTGTTCAAGCGCCATCTAC”, 1.46 RPM ratio (pull-down/input).
For “GATGATTGTTCTCCCAGCTGATGAATTTAGACACTCGAGTAAACAAATTTTCCTAATCTTTCTGTTCAAGCGCCATCTAC”, the binding signal is 1.01 RPM ratio (pull-down/input).
In the case of “GATGATTGTTCTCCCAGCTGATGAATTGAAATTTTCGAGTAAACAAATTTTCCTAATCTTTCTGTTCAAGCGCCATCTAC” it was 1 RPM ratio (pull-down/input).
Then “GATGATTGTTCTCCCAGCTGATGAATTGCTCTACTCGAGTAAACAAATTTTCCTAATCTTTCTGTTCAAGCGCCATCTAC”, with 0.974 RPM ratio (pull-down/input); and “GATGATTGTTCTCCCAGCTGATGAATTAACTCAGTCGAGTAAACAAATTTTCCTAATCTTTCTGTTCAAGCGCCATCTAC”, with 0.845 RPM ratio (pull-down/input); and “GATGATTGTTCTCCCAGCTGATGAATTCTCCGATTCGAGTAAACAAATTTTCCTAATCTTTCTGTTCAAGCGCCATCTAC”, with 0.874 RPM ratio (pull-down/input).
In the case of “GATGATTGTTCTCCCAGCTGATGAATTCGGAATGTCGAGTAAACAAATTTTCCTAATCTTTCTGTTCAAGCGCCATCTAC” it was 0.841 RPM ratio (pull-down/input); in that of “GATGATTGTTCTCCCAGCTGATGAATTTCAAGTCTCGAGTAAACAAATTTTCCTAATCTTTCTGTTCAAGCGCCATCTAC”, 0.741 RPM ratio (pull-down/input).
On to “GATGATTGTTCTCCCAGCTGATGAATTCTTAGACTCGAGTAAACAAATTTTCCTAATCTTTCTGTTCAAGCGCCATCTAC”, for which the binding signal is 0.849 RPM ratio (pull-down/input).
Turning to “GATGATTGTTCTCCCAGCTGATGAATTCACGGGGTCGAGTAAACAAATTTTCCTAATCTTTCTGTTCAAGCGCCATCTAC”, the binding signal is 0.741 RPM ratio (pull-down/input).
Then “GATGATTGTTCTCCCAGCTGATGAATTTCTTGAGTCGAGTAAACAAATTTTCCTAATCTTTCTGTTCAAGCGCCATCTAC”, with 0.919 RPM ratio (pull-down/input); and “GATGATTGTTCTCCCAGCTGATGAATTCACTTATTCGAGTAAACAAATTTTCCTAATCTTTCTGTTCAAGCGCCATCTAC”, with 0.87 RPM ratio (pull-down/input).
In the case of “GATGATTGTTCTCCCAGCTGATGAATTAAAAAGGTCGAGTAAACAAATTTTCCTAATCTTTCTGTTCAAGCGCCATCTAC” it was 0.84 RPM ratio (pull-down/input); in that of “GATGATTGTTCTCCCAGCTGATGAATTTACCAAATCGAGTAAACAAATTTTCCTAATCTTTCTGTTCAAGCGCCATCTAC”, 1.65 RPM ratio (pull-down/input); in that of “GATGATTGTTCTCCCAGCTGATGAATTCGTAGCATCGAGTAAACAAATTTTCCTAATCTTTCTGTTCAAGCGCCATCTAC”, 1.03 RPM ratio (pull-down/input).
On to “GATGATTGTTCTCCCAGCTGATGAATTATAGGTATCGAGTAAACAAATTTTCCTAATCTTTCTGTTCAAGCGCCATCTAC”, for which the binding signal was 1.13 RPM ratio (pull-down/input).
As to “GATGATTGTTCTCCCAGCTGATGAATTATATCTGTCGAGTAAACAAATTTTCCTAATCTTTCTGTTCAAGCGCCATCTAC”, the binding signal is 1.08 RPM ratio (pull-down/input).
In the case of “GATGATTGTTCTCCCAGCTGATGAATTTGTCTGCTCGAGTAAACAAATTTTCCTAATCTTTCTGTTCAAGCGCCATCTAC” it was 0.987 RPM ratio (pull-down/input); in that of “GATGATTGTTCTCCCAGCTGATGAATTACAAAAGTCGAGTAAACAAATTTTCCTAATCTTTCTGTTCAAGCGCCATCTAC”, 1.35 RPM ratio (pull-down/input).
In the case of “GATGATTGTTCTCCCAGCTGATGAATTACTTAGGTCGAGTAAACAAATTTTCCTAATCTTTCTGTTCAAGCGCCATCTAC” it was 0.952 RPM ratio (pull-down/input).
In the case of “GATGATTGTTCTCCCAGCTGATGAATTCCCCCGGTCGAGTAAACAAATTTTCCTAATCTTTCTGTTCAAGCGCCATCTAC” it was 0.738 RPM ratio (pull-down/input); in that of “GATGATTGTTCTCCCAGCTGATGAATTTTCCGCATCGAGTAAACAAATTTTCCTAATCTTTCTGTTCAAGCGCCATCTAC”, 1.22 RPM ratio (pull-down/input).
Consider “GATGATTGTTCTCCCAGCTGATGAATTTCATAGCTCGAGTAAACAAATTTTCCTAATCTTTCTGTTCAAGCGCCATCTAC”, for which the binding signal was 0.849 RPM ratio (pull-down/input).
Then “GATGATTGTTCTCCCAGCTGATGAATTGCGCAGTTCGAGTAAACAAATTTTCCTAATCTTTCTGTTCAAGCGCCATCTAC”, with 1.08 RPM ratio (pull-down/input); and “GATGATTGTTCTCCCAGCTGATGAATTGCGTATTTCGAGTAAACAAATTTTCCTAATCTTTCTGTTCAAGCGCCATCTAC”, with 1.38 RPM ratio (pull-down/input).
